# Measured values reported in PubChem BioAssay (NCATS).
# Several values for one entry are separate records, joined by “and”; a condition that tells them apart may be missing. Equal entries are not always repeated. Inconclusive results, whose numbers are uncertain, are shown with a selection of clear calls. Where the call is inconclusive, the potency comes from a doubtful curve fit. Activity calls are given as the source filed them. Calls come from the whole dose curve; as a rule, active = well fitted activation curve with a large enough effect; inconclusive = small, poorly fitted or top-dose-only effect; inactive = no such curve, though single readings can be large or run the other way.
# Target: Cellular tumor antigen p53 (Homo sapiens) (UniProt P04637)
# Experiment: Primary qHTS for small molecule compounds that upregulate eGFP-tagged delta133p53alpha (in N-terminal) cells. (AID 2060322);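 note: cells pre-induced with doxycycline then dosed without doxycycline; nearly all actives have a fitted effect of over 75% in size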;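 for activation: series mostly up to about 56 µM; 0% = DMSO vehicle and 100% = reference activator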
# Conditions: NCI-H358 eGFP-delta133p53alpha fluorescence, 24 h; activation: stronger effect = higher value
# Method in brief: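 NCI-H358 cells pre-induced 24 h with 10 ng/ml doxycycline for eGFP-delta133p53alpha, plated dox-free and exposed 24 h at 37C to titrated compounds. Fixed, Hoechst-stained; gated GFP peak intensity by laser scanning cytometry, normalized to DMSO (0%) and 57.5 uM 5-azacytidine (100%).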
# Potency is the fitted concentration of half-maximal effect; tags give direction and shape of the fitted curve.
# Sequence of UniProt P04637 (P04637 whole entry, looked up): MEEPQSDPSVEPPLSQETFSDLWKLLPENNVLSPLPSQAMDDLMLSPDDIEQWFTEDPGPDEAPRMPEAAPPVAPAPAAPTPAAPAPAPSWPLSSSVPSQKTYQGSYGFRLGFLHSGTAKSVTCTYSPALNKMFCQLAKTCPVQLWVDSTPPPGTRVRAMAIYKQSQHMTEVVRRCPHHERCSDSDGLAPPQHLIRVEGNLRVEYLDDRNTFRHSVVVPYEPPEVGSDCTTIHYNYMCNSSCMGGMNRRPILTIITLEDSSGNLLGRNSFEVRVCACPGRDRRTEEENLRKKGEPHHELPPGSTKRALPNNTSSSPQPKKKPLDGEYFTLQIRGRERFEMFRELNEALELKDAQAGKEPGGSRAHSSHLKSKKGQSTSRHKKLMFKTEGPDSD
SMILES,activation,Potency
Nc1ccc([N+](=O)[O-])c(C(F)(F)F)c1,inactive: -10.7%,
CCN(CC)C(=O)Nc1ccc(OCC(O)CNC(C)(C)C)c(C(C)=O)c1 (stereo not drawn),inactive: -6.69% and inactive: 4.3%,
CN=c1nc(-c2ccccc2)n(-c2ccccc2)s1,,"inconclusive: 6.75 µM [activator, partial curve, poor fit]"
c1ccc2c(CC3=NCCN3)cccc2c1,inactive: -10%,
C=CC(C)(C)c1[nH]c2cc3c(cc2c1CC1NC(=O)C2CCCN2C1=O)C=CC(C)(C)O3 (stereo not drawn),inactive: -13%,
CN(C)CC(=O)Nc1ccc2[nH]c(=O)c3ccccc3c2c1,,"inconclusive: 17.2 µM [activator, partial curve, poor fit]"
CCCCCCCCOc1ccccc1C(=O)Nc1ccc(C(=O)OCC[N+](C)(CC)CC)cc1,,"inconclusive: 24.6 µM [activator, partial curve, poor fit]"
N[C@@H](CC(=O)Nc1ccc(Oc2cc(F)c(F)cc2Br)cc1)C(=O)O,inactive: -8.11%,
COc1ccc(Oc2cc(C)c(-c3csc(NC(=O)c4ccncc4)n3)c(C)c2)cc1,inactive: 11%,
CC(C)(O)Cn1c(NC(=O)c2ccc(-c3cn[nH]c3)s2)nc2cc(CN3CCOCC3)ccc21,,active: 3.85 µM
C[C@H]1O[C@@H](O[C@H]2CC[C@@]3(C)[C@H](CC[C@@H]4[C@@H]3C[C@@H](O)[C@]3(C)[C@@H](C5=CC(=O)OC5)CC[C@]43O)C2)C[C@H](O)[C@@H]1O[C@H]1C[C@H](O)[C@H](O[C@H]2C[C@H](O)[C@H](O[C@@H]3O[C@H](CO)[C@@H](O)[C@H](O)[C@H]3O)[C@@H](C)O2)[C@@H](C)O1,,active: 1.55 µM
O=C(c1ccc(C=Cc2n[nH]c3ccccc23)cc1)N1CCNCC1,inconclusive: -9.03% [activator],
O=C(Oc1ccccc1C(=O)O)c1ccccc1O,inactive: -5.02%,
CCOc1cc(C(C)(C)C)ccc1C1=NC(C)(c2ccc(Cl)cc2)C(C)(c2ccc(Cl)cc2)N1C(=O)N1CCN(CCCS(C)(=O)=O)CC1 (stereo not drawn),,"inconclusive: 30.1 µM [activator, single point]"
C[C@H]1CC(=O)C2=C(C1)C(O)C(O)[C@@]1(O)[C@H]2C(=O)c2cccc(O)c2[C@@H]1O (stereo partly drawn),inactive: 3.05%,
C=C[C@H]1[C@H](O[C@@H]2O[C@H](CO[C@@H]3OC[C@](O)(CO)[C@H]3O)[C@@H](O)[C@H](O)[C@H]2O)OC=C2C(=O)OCC[C@H]21,inactive: 5.36%,
O=C(N[C@H]1CCN(C(=O)c2cc(C(F)(F)F)cc(C(F)(F)F)c2)[C@H](Cc2ccc(Cl)cc2)C1)c1ccnc2ccccc12,,"inconclusive: 0.415 µM [activator, full curve, poor fit]"
O=C(O)CCc1nc(-c2ccccc2)c(-c2ccccc2)o1,,"inconclusive: 11 µM [activator, partial curve, poor fit]"
CC(C)C(CO)Nc1nc(Nc2cc(N)cc(Cl)c2)c2ncn(C(C)C)c2n1 (stereo not drawn),,active: 30.1 µM
O=C1CC2(CCCC2)CC(=O)N1CCNCC1COc2ccccc2O1 (stereo not drawn),inactive: -5.86%,
CC(C)CCCCC(=O)N[C@@H](CO)C(=O)N[C@@H](CC(C)C)C(=O)[C@@]1(CO)CO1,,"inconclusive: 37.9 µM [activator, single point]"
Cc1ccc(C(=O)Oc2ccc(C(O)CNC(C)(C)C)cc2OC(=O)c2ccc(C)cc2)cc1 (stereo not drawn),inconclusive: 33.5% [activator],
COc1ccc(F)cc1-c1cc(NC(=O)[C@@H]2CCCNC2)ncc1Cl,,active: 0.269 µM
CC(C)(C)NS(=O)(=O)c1ccc(-c2ccc3[nH]nc(N)c3c2)cc1,inactive: 0%,
CC(=O)N/N=C/c1ccc([N+](=O)[O-])o1,,"inconclusive: 38.9 µM [activator, single point]"
O=C(/C=C/c1ccc(CN(CCO)CCc2c[nH]c3ccccc23)cc1)NO,,"inconclusive: 30.6 µM [activator, partial curve, poor fit]"
O=C(O)c1ccccc1NCCc1ccccc1,inactive: -1.69%,
N#Cc1ccc(COC[C@H]2O[C@@H](n3c(NCc4ccc(Cl)c(Cl)c4)nc4c(N)ncnc43)[C@@H](O)[C@@H]2O)cc1,,"inconclusive: 24.3 µM [activator, partial curve, poor fit]"
